Measurements taken from PubChem BioAssay AID485297 (National Center for Advancing Translational Sciences (NCATS), 2010).
The campaign covered roughly 320,000 compounds. About 9,100 (2.8%) were called active. This list was built around the results that the source calls inconclusive (neither active nor inactive); the mix of calls is not that of the screen. Calls follow the shape of the dose curve; as a rule, active = well fitted activation curve with a large enough effect; inconclusive = small, poorly fitted or top-dose-only effect; inactive = no such curve, though single readings can be large or run the other way. Potencies beside an inconclusive call are fits to weak or partial responses and may not hold up.

assay: qHTS Assay for Rab9 Promoter Activators; conditions: Huh7 Rab9 promoter-luciferase reporter, luminescence, 24 h; series mostly up to 9.22 µM; also: nearly all actives have a fitted effect of over 60% in size
Method in brief: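 Promoter activation is measured as luciferase luminescence in Huh7 cells stably transfected with a Rab9 promoter–luciferase construct, following 24 h compound exposure at 37 °C and 10 min reagent incubation at ambient temperature.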
Potency is read from the fitted curve at half-maximal effect; tags tell the direction and shape of the fitted curve.

Potency, inconclusive:
C/C(=N/NC(=O)c1cccs1)c1cccc(N)c1 2 µM [activator, partial curve]
Cc1nc2cc(-c3ccccc3)[nH]n2c(=O)c1C 5.01 µM [activator, single point]
CC(=O)c1ccc(NC(=O)c2noc3c2CCC3)cc1 0.708 µM [activator, partial curve, poor fit]
O=C(N/N=C/C(Cl)=C/c1ccccc1)c1ccc2c(c1)OCO2 5.62 µM [activator, single point]
COc1ccnc(Oc2ccc3ccccc3c2)c1C#N 2 µM [activator, partial curve]
Cc1c(C(=O)O)cnc2cc(-c3ccc(Cl)cc3)nn12 3.16 µM [activator, single point]
N#CCCN1CCN(C(=S)c2ccc(-c3cccc(Cl)c3)o2)CC1 5.62 µM [activator, single point]
CC(=O)c1cccc(OCc2cc(C(=O)NCc3nc(C)c(C)s3)no2)c1 5.62 µM [activator, single point]
Nc1c(C(=O)Nc2cccc(F)c2)nnn1-c1cccc(C(F)(F)F)c1 2.82 µM [activator, partial curve]
CC(=O)c1sc(Nc2cccc(C)c2)nc1C 3.16 µM [activator, single point]
N#C/C(=C\c1ccc(O)cc1)c1nc2ccccc2o1 3.16 µM [activator, partial curve]
CCN(CC)S(=O)(=O)c1cccc(C(=O)Nc2ccc3c(c2)OCO3)c1 1 µM [activator, single point]
Oc1ccc(/C=N/NC2=NCCCCC2)c(O)c1 1.26 µM [activator, partial curve]
CN(C)S(=O)(=O)Oc1cccc(C(=O)Nc2cccc(Cl)c2)c1 3.98 µM [activator, partial curve]
COc1ccc2oc(C(=O)OCC(=O)/C(C#N)=C(\C)N)c(C)c2c1 5.62 µM [activator, single point]
COc1ccc(OCc2cc(C(=O)N[C@H]3CCCCNC3=O)no2)c(Cl)c1 2.82 µM [activator, partial curve]
COc1ccc(CCn2c(O)cc3nn(-c4nc5ccccc5s4)c(=O)c-3c2C)cc1 2.82 µM [activator, partial curve]
O=C(COc1ccccc1Cl)Nc1ccc(N2CCCC2)cc1 3.16 µM [activator, partial curve]
CN(C)/C=N/c1sc2c(c1C#N)CCCCC2 3.55 µM [activator, single point]
COc1ccc(NC(=O)c2ccc(OCC3CCCO3)cc2)cc1Cl (stereo unspecified) 1.58 µM [activator, partial curve]
Cc1ccsc1/C=N/n1cnc2sc(C)c(C)c2c1=O 3.55 µM [activator, single point]
Cc1ccsc1C(=O)OCC(=O)NC1CCCC1 1.78 µM [activator, partial curve]
CCOc1ccccc1/C=N/NC(=O)c1cccc(S(=O)(=O)N(CC)CC)c1 1.12 µM [activator, single point]
Cc1cc(-c2nnco2)c(C)n1-c1ccccc1 3.16 µM [activator, single point]
Cc1ccc(C(=O)OCC(=O)c2c[nH]c3ccccc23)cc1NC(=O)c1ccco1 5.62 µM [activator, single point]
Cn1nnnc1SCc1ccc(C(=O)Nc2ccc(Br)cc2)cc1 4.47 µM [activator, partial curve]
CNC(=O)c1cc2c(s1)-c1ccccc1CC2 3.55 µM [activator, partial curve]
CNC(=S)NNC(=O)c1ccc(C(C)(C)C)cc1 4.47 µM [activator, partial curve]
CC(C)C(=O)Nc1ccc2oc(-c3cc(F)c(F)cc3Cl)nc2c1 3.16 µM [activator, partial curve]
Cc1ccnc(NC(=O)c2ccc(Cl)c(S(=O)(=O)N3CCCC3)c2)c1 2.82 µM [activator, partial curve]
O=C(CCNC(=O)c1ccc(Br)cc1)NCC1COc2ccccc2O1 (stereo unspecified) 2.82 µM [activator, partial curve]
COc1cc(Cl)c(C)cc1NC(=O)c1ccc2c(c1)OCO2 3.16 µM [activator, single point]
COc1ccc(/C=C(\C#N)c2nc3ccccc3[nH]2)cc1O 3.16 µM [activator, single point]
O=C(CSc1nc2ccccc2o1)N/N=C/c1ccccc1C(=O)O 6.31 µM [activator, single point]
CC(=O)NS(=O)(=O)c1ccc(NC(=O)/C=C/c2ccc(C)o2)cc1 5.62 µM [activator, single point]
Clc1ccc(SCc2nc3ccccc3[nH]2)cc1 6.31 µM [activator, single point]
COc1ccc(C(=O)NCC2OCCc3ccccc32)c(O)c1 (stereo unspecified) 3.98 µM [activator, partial curve]
Nc1ccc(/C=C/C(=O)c2ccco2)cc1 5.62 µM [activator, single point]
O=C(N/N=C/c1ccccn1)c1ccc(Br)cc1 2.82 µM [activator, single point]
C/C(=N\NC(=O)COc1ccccc1)c1cccs1 5.01 µM [activator, single point]

Potency, inactive:
O=C1CCCN1CCCN=c1c([N+](=O)[O-])nn(-c2ccc(Cl)cc2)n1O
Cc1ccc(NC(=O)COC(=O)c2ccco2)cc1C
Cc1ccc(NC(=O)c2ccc(NCCCN3CCC(C)CC3)c([N+](=O)[O-])c2)cc1F
COc1ccccc1NC(=O)CSc1ccc(-c2ccc(-n3cccn3)cc2)nn1
c1ccc(-n2nnnc2SCc2cn3ccccc3n2)cc1
O=C(Nc1ccccc1)C1=C[C@H](c2ccc3c(c2)OCO3)C[C@H](OCCCCO)O1
CCOC(=O)c1c(C)[nH]c(C(=O)CSc2nnc(CC(C)c3ccccc3)o2)c1C (stereo unspecified)
CCn1nc(NC(=O)c2ccncc2)c2cc3ccc(C)cc3nc21
COc1ccc(OCCCC(=O)Nc2cccc(SC)c2)cc1
CCC1(C)Cc2c(sc3nnn(Cc4ccccc4Cl)c(=O)c23)CO1 (stereo unspecified)
Cc1ccc(-c2nnc(NCc3nc4ccccc4[nH]3)c3ccccc23)cc1S(=O)(=O)N(C)C
Cc1sc(NC(=O)/C=C/c2ccc3c(c2)OCO3)nc1-c1ccccc1
O=C(COC(=O)CNS(=O)(=O)c1c(F)cccc1F)NC(=O)NC1CCCCC1
O=C(O)c1csc(N/N=C/c2ccc(Br)cc2)n1
CC(C)C(C)NC(=O)COc1ccc(Sc2ccc(OCC(=O)NC(C)C(C)C)cc2)cc1 (stereo unspecified)
COC(=O)c1cc2oc(C)cc2n1CC(=O)N1CCCc2ccccc21
COc1ccc(/C=N/NC(=O)c2ccncc2)cc1Cn1nc([N+](=O)[O-])c(Br)c1C
COc1cc(/C=N/N=C2/NC(=O)C(Cc3ccc(F)cc3)S2)ccc1O (stereo unspecified)
COc1cccc(/C=N/NC(=O)C(C)n2nc(C)c([N+](=O)[O-])c2C)c1O (stereo unspecified)
O=C(COC(=O)c1ccco1)NCCc1ccc(Cl)cc1
Cc1ccc(S(=O)(=O)NC2CCSC2=O)cc1C (stereo unspecified)
COCCNC(=O)CN1C(=O)c2cccc3cccc1c23
O=C(Nc1cccs1)NC1CCCC1
COc1ccc(-c2noc(CCCC(=O)O)n2)cc1
O=C(/C=C/c1ccc(S(=O)(=O)N2CCOCC2)cc1)N1CCN(c2ccc(F)cc2)CC1
Cc1ccc2c(c1)nnn2C1CCN(C(=O)C23CC4CC(CC(C4)C2)C3)CC1
COc1cc(OC)c(NC(=O)N2CCOCC2)cc1Cl
CCCCNc1nc2cccnc2s1
COc1ccccc1N1CCN(c2ccnc3cc(Cl)ccc23)CC1
CN(C)CC1CCCCC1OC(=O)/C=C/c1ccccc1 (stereo unspecified)
CCOCCCNC(=O)c1cc2c(-c3ccc(Cl)cc3)nn(C)c2s1

Potency, active:
CC(=O)c1ccc(OCc2cc(C(=O)N3CC[C@@H]4CCCC[C@H]4C3)no2)cc1 2 µM
COc1ccccc1C(=O)Nc1ccc2c(c1)OCO2 2.51 µM
O=[N+]([O-])c1ccccc1/C=C/C=N/N1CCCCC1 2.24 µM
CCOC(=O)c1ccccc1NC(=O)CSc1nnc(Cc2cccn2C)n1-c1ccc(F)cc1 3.16 µM
Clc1ccccc1N/N=C/c1ccc2c(c1)OCO2 2.82 µM
Cc1c(C(=O)N2c3ccccc3CC2C)oc2ccccc12 (stereo unspecified) 2.82 µM
CCC(=O)Nc1nc(-c2ccccc2)ns1 2 µM
NS(=O)(=O)c1cc(C(=O)Nc2ccc3c(c2)CCC3)ccc1Cl 3.98 µM
Cc1cc(C)nc(Nc2n[nH]c(-c3ccccc3C)n2)n1 1.78 µM
CCN1CCN(C(=O)c2cc(COc3ccc(C(C)=O)cc3OC)on2)CC1 3.16 µM
